# From ChEMBL document CHEMBL4888484, “Replenishing the malaria drug discovery pipeline: Screening and hit evaluation of the MMV Hit Generation Library 1 (HGL1) against asexual blood stage Plasmodium falciparum ,using a nano luciferase reporter read-out” (2022)
# The campaign covered roughly 150,000 compounds. About 540 (0.36%) showed an effect of 50% or more. The list shows a part of the results.
# Test system: Plasmodium falciparum
# Experiment: Primary screen in NF54 nanoGlo assay, in single point, at 2uM, 72h; a lower Z score goes with more inhibition
# Format: functional, Erythrocyte
# Settings: timepoint 72 hour
Compound,% Inhibition,Z score
Cc1c(C(=O)NCc2cccc(F)c2)cnn1-c1nccc(-c2ccco2)n1,-16%,2.1
O=C1N[C@@H]2CCN(S(=O)(=O)c3cccc(F)c3)[C@@H]2C(=O)N1c1ccc(F)cc1,28%,-3.14
Brc1ccc(C2(NCc3ccccn3)CC2)cc1,-16%,2.24
COc1ccccc1CC(=O)N1CC[S@+]([O-])C(C)(C)C1,-11%,0.96
CC(C)(C)c1noc([C@@H]2COc3ccc(O)cc3O2)n1,-7%,1.32
O=C(NCc1ccc(Br)cc1)[C@H]1CCCN(c2ccnc(-c3cccc(F)c3)n2)C1,-4%,0.44
Cn1cnnc1[C@@H]1CCCN1Cc1c(F)cccc1OC(F)(F)F,3%,-0.38
Cc1cc(C)n(C)c(=O)c1C(=O)N(C)Cc1cc2cc(F)ccc2[nH]1,17%,-2.26
Cc1ccc(NCc2ncnn2C)c(F)c1,-2%,0.28
O=C(C[C@@H]1COC2(C1)CN(C(=O)CCc1nc3ccccc3s1)C2)N1CCOCC1,-5%,0.78
CCc1cc(NC(=O)Cc2cccs2)nn1-c1ccc(OC)cc1,5%,-0.59
Nc1ncnc(N2CCc3c(F)cc(F)cc3C2)c1Cl,-7%,0.77
CN(C)S(=O)(=O)c1ccc2c(c1)nnn2CCNC(=O)Nc1ccc(Br)cc1,-4%,0.56
NC(=O)N1CCCN(C(=O)[C@@H](F)CC2CCCCC2)CC1,-5%,0.55
Cc1nn(C)cc1C(C)NC(=O)C(C)CCOc1ccccc1 (centres undefined),-2%,0.31
COc1ccc2cc3c(nc2c1)N(C(=O)c1ccc(S(=O)(=O)N2CCCC2)cc1)CC3,-3%,0.32
FC(F)(F)C1(C(F)(F)F)CCN(CCc2ccccn2)C1,-2%,0.27
CCOC(=O)c1cn(C)nc1C(F)F,-12%,1.17
N#Cc1cccc(NCc2nnn(CC(F)(F)F)n2)c1,-28%,3.24
Cc1nc[nH]c1CN1C[C@H]2CC[C@@H](C1)N(Cc1c(Cl)cncc1Cl)C2,-4%,0.55
O=C1CC2(CCN(c3nccc4ccccc34)CC2)CN1,7%,-1.01

Compound,% Inhibition,Z score
O=C(N[C@@H]1CN(C(=O)Cc2c[nH]c3ccccc23)C[C@H]1CO)c1ccccc1,-2%,0.33
COc1ccc([C@H](C)NC(=O)c2cnc(C)cc2O)cc1,-5%,0.66
CC[C@@H](c1ccncc1)N(C)C(=O)NCc1ccc(OC(C)(C)C)nc1,2%,-0.29
CCc1ccc2ncc(C(=O)c3ccc(Cl)cc3)c(O)c2c1,48%,-6.47
Cc1ccc(NC(=O)CN2C(=O)CCCc3cc(S(=O)(=O)N4CCC(C)CC4)ccc32)c(C)c1,-15%,1.94
CC(C)(C)c1ncc(N2C(=O)C3CC4CCCCC4N3C2=O)cn1 (centres undefined),0%,0.02
CO[C@@H](CNC(=O)Cc1ccsc1)c1ccc(Cl)s1,-24%,3.06
O=C(CCc1cc2n(n1)CCN(C(=O)c1ccc[nH]1)C2)N1CCCC1,-8%,1.09
COC(=O)c1nc(NC(=O)C[C@@H]2NC(=O)N(Cc3ccccc3)C2=O)sc1C(C)C,-12%,1.89
Cc1cccc(CN2CCC[C@H]2C(=O)Nc2ccc(-c3cscn3)cc2)n1,-2%,0.29
Cc1ccccc1-c1noc(-c2nn(-c3ccccc3)c(=O)c3ccccc23)n1,16%,-1.86
CNC(=O)C1(C)CCN(c2ncnc3c2ncn3CC(O)C2CCCO2)C1 (centres undefined),-23%,3.34
Cc1noc(C)c1C(=O)NC1CCCCC1Cc1ccco1 (centres undefined),-8%,1.11
Cc1ccc(NC(=O)[C@@H]2CNCCN2C(=O)c2occc2C)cn1,7%,-1.4
Cc1oc(-c2cc(F)ccc2F)nc1CN1CCCC[C@H]1c1nc2cc(F)ccc2[nH]1,-3%,0.58
Cc1cc(C)n(-c2ccnc(N3CCN(c4ccccc4)CC3)n2)n1,-16%,1.7
CON(C)C(=O)CCN(C)Cc1nccn1C(F)F,-2%,0.3
CCc1c(C)nn(C)c1NC(=O)CCc1cccnc1,-16%,3.11
COC(=O)c1ncn(Cc2nn(-c3ccc(F)cc3)c3c2CCC3)n1,-3%,0.52
CCn1ncc2cc(C(=O)N3CC(=O)N(CC4CC4)C3)c(C)nc21,-14%,1.22
O=C(NCCC1=CCCCCC1)c1cc2[nH]cnc2cc1F,-30%,3.17
